{"source": "PubChem BioAssay AID686979", "about": "(National Center for Advancing Translational Sciences (NCATS), 2013)", "note": "Among all 420,000 compounds or so, about 50,000 (12%) were called active. The shares of active, inactive and inconclusive entries below differ from those in the screen. The call rests on the fitted dose curve; in most records, active means well fitted inhibition curve with a large enough effect; inconclusive means small, poorly fitted or top-dose-only effect; inactive means flat fitted curve, though single readings scatter. No potency is given beside an inconclusive call; the fits are too rough. On the % scale 0 is the no-effect control and ±100 the full control effect; potency means the concentration at half of the fitted maximal effect; tags describe the fitted curve by direction and shape.", "data": [{"experiment": "qHTS for Inhibitors of human tyrosyl-DNA phosphodiesterase 1 (TDP1): qHTS in cells in presence of CPT; further: nearly all actives have a fitted effect of over 55% in size", "conditions": "chicken DT40 Tdp1-/-;hTDP1 cells + 20 nM CPT, ATP luminescence, 48 h; activity change, negative = growth inhibition: at 46.2 µM (top of the series) unless noted", "procedure,_shortened": "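Cell growth measured by CellTiter-Glo luminescence after a minimum 48 h, 37 C compound exposure with 20 nM CPT in Tdp1-knockout DT40 cells stably expressing hTDP1, seeded 400/well; qHTS titration format.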", "values": [{"smiles": "CC(C)(C)c1ccc(/C=C2\\SC(=O)N=C2N)cc1", "Potency": "inactive"}, {"smiles": "CCN1CCN(Cc2ccc(NC(=O)c3ccc(C)c(NC(=O)c4csc(-c5ccncc5)n4)c3)cc2C(F)(F)F)CC1", "Potency": "active: 16.4 µM"}, {"smiles": "CCCOc1ccc(C(=O)Nc2ccc3oc(-c4ccc5ccccc5c4)nc3c2)cc1", "Potency": "inactive"}, {"smiles": "CCOC(=O)C1=C(C)OC(N)=C(C#N)C1c1cc2cc(C)ccc2nc1N1CCCCC1", "note": "(stereo unspecified)", "Potency": "inconclusive [inhibitor, single point]"}, {"smiles": "Cc1sc2ncn(CC(=O)Nc3ccc(F)cc3Cl)c(=O)c2c1S(=O)(=O)N1CCN(c2ncccn2)CC1", "Potency": "inactive"}, {"smiles": "Clc1ccc(-c2nnc3n2CCCCC3)cc1", "Potency": "inactive"}, {"smiles": "CCC(=O)N(CC(=O)Nc1sc(C)c(C)c1C(N)=O)Cc1ccc(F)cc1", "Potency": "active: 20.6 µM"}, {"smiles": "CCOC(=O)c1c(C)oc2ncnc(N3CCN(c4ccc(C)cc4C)CC3)c12", "Potency": "active: 20.6 µM"}, {"smiles": "O=C(Nc1cccc(O)c1)c1cc(-c2ccc3c(c2)OCO3)on1", "Potency": "inactive"}, {"smiles": "O=C(CSc1nc2ccccc2c(=O)n1Cc1ccc(F)cc1)NCC1CCCO1", "note": "(stereo unspecified)", "Potency": "inactive"}, {"smiles": "CCOC(=O)c1ccccc1NC(=O)Cn1c(=O)n(CCC(=O)NCc2ccccc2OC)c(=O)c2ccccc21", "Potency": "inconclusive [inhibitor, single point]"}, {"smiles": "Cc1ccc(NC(=O)COc2cccc(-n3cnnn3)c2)cc1S(=O)(=O)N1CCOCC1", "Potency": "inconclusive [inhibitor, single point]"}, {"smiles": "CCCC(=O)N1CCC1(C)C(=O)NS(=O)(=O)c1cccc(F)c1", "note": "(stereo unspecified)", "activity change, negative = growth inhibition": "inconclusive: -35.3% [inhibitor]"}, {"smiles": "Cc1ccc(CN2CCN(CCCn3cnc4c(OCc5ccccc5)ncnc43)CC2)cc1", "Potency": "active: 23.1 µM"}, {"smiles": "COc1ccccc1N1CCN(C(=O)c2c(-c3c(Cl)cccc3Cl)noc2C)CC1", "activity change, negative = growth inhibition": "inconclusive: -30.6% [inhibitor]"}, {"smiles": "O=C(CCN1CCN(Cc2ccccc2)CC1)NNC(=O)Cc1ccc(Cl)c(Cl)c1", "Potency": "inconclusive [inhibitor, single point]"}, {"smiles": "COc1cc(/C=C2\\SC(=O)N(CCNC(=O)c3c(C)noc3C)C2=O)cc(OC)c1OC", "Potency": "inconclusive [inhibitor, single point]"}, {"smiles": "CC(C)C(=O)NNC(=O)c1csc(-c2cccs2)n1", "Potency": "inactive"}, {"smiles": "C=C(C)Cn1c2ccc(NC(=O)NCCc3cccs3)cc2c(=O)n1C", "Potency": "inconclusive [inhibitor, single point]"}, {"smiles": "Cc1ccc2nc(NC(=O)CSc3nncc(=O)n3N)sc2c1", "Potency": "inconclusive [inhibitor, single point]"}, {"smiles": "CC(=O)N1c2ccc(S(=O)(=O)NCC3CCC(C(=O)Nc4cc(C)ccn4)CC3)cc2CC1C", "note": "(stereo unspecified)", "Potency": "active: 18.4 µM"}, {"smiles": "COc1cccc(-c2nnc3n(Cc4ccc(C)cc4)c(=O)c4ccccc4n23)c1O", "Potency": "inconclusive [inhibitor, single point]"}, {"smiles": "Cc1ccc(-n2nc3c(c2NC(=O)c2ccco2)CS(=O)C3)cc1", "note": "(stereo unspecified)", "Potency": "inconclusive [inhibitor, full curve, poor fit]"}, {"smiles": "COc1ccc(Cl)cc1NC(=O)C1CCN(S(C)(=O)=O)CC1", "Potency": "inactive"}, {"smiles": "CCN(CC)S(=O)(=O)c1ccc(OC)c(NC(=O)CSCc2c(C)noc2C)c1", "Potency": "inconclusive [inhibitor, single point]"}, {"smiles": "CN1CCCN(C(=O)c2cccc(Cl)c2)CC1", "Potency": "inactive"}, {"smiles": "CC1CCCCN1CCCNC(=O)C1CCN(c2nnc(-n3cccc3)s2)CC1", "note": "(stereo unspecified)", "Potency": "inactive"}, {"smiles": "COc1cc(OC)nc(Oc2ccccc2C(=O)Oc2ccc(Cl)cc2)n1", "Potency": "inconclusive [inhibitor, single point]"}, {"smiles": "O=C(/C=C/c1ccccc1)NC(=S)NNC(=O)Cc1cccs1", "Potency": "inconclusive [inhibitor, single point]"}, {"smiles": "CCSc1ncc(/C=N/Nc2ccc([N+](=O)[O-])cc2)n1C", "Potency": "inconclusive [inhibitor, full curve]"}, {"smiles": "Cc1ccc(C)c(S(=O)(=O)Nc2ccc3scnc3c2)c1", "Potency": "active: 23.1 µM"}, {"smiles": "O=C(COC(=O)/C=C/c1ccccc1)NC1CCCCC1", "Potency": "inactive"}, {"smiles": "CCCCN(Cc1cccs1)S(=O)(=O)c1cc(-c2cc(C)no2)ccc1C", "Potency": "inconclusive [inhibitor, single point]"}, {"smiles": "O=C(NCc1ccc2c(c1)OCO2)c1ccc(CS(=O)(=O)c2ccc(Br)cc2)o1", "Potency": "inconclusive [inhibitor, single point]"}, {"smiles": "CC(C)c1ccccc1NC(=S)NC(=O)C1CCCCC1", "Potency": "inconclusive [inhibitor, single point]"}, {"smiles": "Cc1cc(N/N=C/c2ccc(O)cc2)nc(NS(=O)(=O)c2ccccc2)n1", "Potency": "inactive"}, {"smiles": "CCCCCCCC(=O)N1CCN(c2cc3c(cc2F)c(=O)c(C(=O)O)cn3CC)CC1", "Potency": "active: 23.1 µM"}, {"smiles": "Cc1cccc(N(CC(N)=O)C2SC(=O)N(c3ccccc3)C2=O)c1", "note": "(stereo unspecified)", "Potency": "inconclusive [inhibitor, single point]"}, {"smiles": "COc1cccc(CNC(=O)c2[nH]c3cc(C)ccc3c2Sc2ccccc2)c1", "Potency": "inconclusive [inhibitor, single point]"}, {"smiles": "O=C(c1ccccc1)C1CCN(C(=O)C2CCC(=O)N(Cc3ccccc3F)C2)CC1", "note": "(stereo unspecified)", "Potency": "active: 16.4 µM"}, {"smiles": "Cc1cccc(NC(=O)CSc2nnc3scc(-c4ccccc4)n23)c1", "Potency": "inconclusive [inhibitor, single point]"}, {"smiles": "COCCCn1c(C(=O)N2CCOCC2)cc2c(=O)n3cccc(C)c3nc21", "Potency": "inactive"}, {"smiles": "O=C(N/N=C/c1cc2c(cc1Br)OCO2)c1c[nH]c2ccccc12", "Potency": "inconclusive [inhibitor, single point]"}, {"smiles": "O=C(N/N=C/c1ccc(O)c(O)c1)c1ccc(CSc2cccc3cccnc23)cc1", "Potency": "inconclusive [inhibitor, single point]"}, {"smiles": "O=C(NCCc1ccco1)c1ccc(OCc2cn3ccccc3n2)cc1", "Potency": "inconclusive [inhibitor, single point]"}, {"smiles": "COc1ccc(C(=O)NNC(=O)C(=O)Nc2ccc(C)c(Cl)c2)cc1", "Potency": "active: 23.1 µM"}, {"smiles": "O=c1c(-c2ccccc2)coc2c(CN3CCCCC3)c(O)ccc12", "Potency": "inactive"}, {"smiles": "CC(C)(C)C1CCC(OCC(O)CN2CCN(c3ccccn3)CC2)CC1", "note": "(stereo unspecified)", "Potency": "inconclusive [inhibitor, single point]"}, {"smiles": "COc1ccccc1NC(=O)c1oc2ccccc2c1NC(=O)C(C)C", "Potency": "active: 10.3 µM"}, {"smiles": "CCOC(=O)Cc1csc(NC(=O)c2ccc(Br)cc2)n1", "Potency": "inconclusive [inhibitor, single point]"}, {"smiles": "O=C(Nc1cccc(Cl)c1)N1CCN2C(=O)c3ccccc3C12c1ccccc1", "note": "(stereo unspecified)", "Potency": "inconclusive [inhibitor, single point]"}, {"smiles": "Cc1ccc(NNC(=O)Nc2ccc(Cl)cc2)nn1", "Potency": "active: 20.6 µM"}, {"smiles": "COc1ccccc1NC(=O)C(C)OC(=O)CCNS(=O)(=O)c1ccc(C)c(C)c1", "note": "(stereo unspecified)", "Potency": "inconclusive [inhibitor, single point]"}, {"smiles": "Cc1cc(C)nc(N2CCC(CNC(=O)CCc3ccccc3)CC2)n1", "Potency": "inconclusive [inhibitor, single point]"}, {"smiles": "O=C(COC(=O)c1ccc2[nH]c3c(c2c1)CCCC3)NC1CCS(=O)(=O)C1", "note": "(stereo unspecified)", "Potency": "inconclusive [inhibitor, partial curve, poor fit]"}, {"smiles": "O=C(CN(C1CCCCC1)S(=O)(=O)c1ccccc1)N1CCCC1", "Potency": "inactive"}, {"smiles": "CC(C)C(=O)Nc1cccc(N2CCN(CCCN3C(=O)C4CCCCN4C3=O)CC2)c1", "note": "(stereo unspecified)", "Potency": "inactive"}, {"smiles": "Cc1c(C)n(Cc2ccccc2)c2ccc(C(=O)NCCCN3CCOCC3)cc12", "Potency": "inconclusive [inhibitor, single point]"}, {"smiles": "CCOC(=O)C1(Cc2ccc(OC)cc2)CCN(C(=O)C2=CCCC2)CC1", "Potency": "inconclusive [inhibitor, single point]"}, {"smiles": "CCOc1ccccc1NC(=O)CCSc1nc2n[nH]c(C)c2c(=N)n1-c1ccccc1Cl", "Potency": "inconclusive [inhibitor, single point]"}, {"smiles": "COc1cccc(CN2CCC2(C)C(=O)Nc2ccc3c(c2)CCN3C(C)=O)c1F", "note": "(stereo unspecified)", "Potency": "inconclusive [inhibitor, single point]"}, {"smiles": "Cc1onc(-c2ccccc2Cl)c1C(=O)OCC(=O)Nc1cccc(S(=O)(=O)N2CCOCC2)c1", "Potency": "inconclusive [inhibitor, single point]"}, {"smiles": "CCOC(=O)N1CCC(Nc2c(NCCCN(CC)c3cccc(C)c3)c(=O)c2=O)CC1", "Potency": "inconclusive [inhibitor, single point]"}, {"smiles": "O=C(CNC(=S)N(CCCN1CCOCC1)Cc1cccs1)NC1CCCCC1", "Potency": "inactive"}, {"smiles": "COc1ccc(-c2cc(-c3ccccc3)c(C#N)c(=S)[nH]2)cc1", "Potency": "inactive"}, {"smiles": "COc1ccc(O)c(/C=N/NC(=O)CCC(=O)Nc2ccc(F)cc2)c1", "Potency": "inconclusive [inhibitor, single point]"}, {"smiles": "O=C(c1ccccc1-c1nc(-c2ccc(F)cc2)no1)N1CCCC1", "Potency": "inconclusive [inhibitor, single point]"}, {"smiles": "O=C(CSc1cccc(C(F)(F)F)c1)NCc1ccccc1", "Potency": "inactive"}, {"smiles": "COc1cccc(CN2CCC3(CC2)c2ccccc2[C@@H](NC(=O)c2ccccc2)[C@@H]3O)c1O", "Potency": "inconclusive [inhibitor, single point]"}, {"smiles": "COc1cc(-c2noc(CSc3nc(-c4ccc(F)cc4)cc(=O)[nH]3)n2)cc(OC)c1OC", "Potency": "inactive"}, {"smiles": "NC(=O)NC(=O)CSc1nc2cc([N+](=O)[O-])ccc2n1-c1cccc(C(F)(F)F)c1", "Potency": "active: 10.3 µM"}]}]}
